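Step 1: Grow cells in 96-well plates. Step 2: Expose to compound for 48 hours at 5 concentrations. Step 3: Interpolate endpoints linearly; if unreached, use highest concentration. GI50 marks 50% less growth. TGI: total growth inhibition.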

The assay has as its system NCI-H322M lung. Put plainly: NCI-60 cell line screen, 48 h.
`COc1ccc(/C=C/C(=O)Oc2ccccc2OC)cc1`: the TGI is over 100 µM.

Take `O=C(/C=C\n1cnc(-c2cc(C(F)(F)F)cc(C(F)(F)F)c2)n1)N1CC(F)(F)C1`: the GI50 was 0.565 µM and the TGI worked out at 8 µM.

In turn, `CC(=O)OC1C(O[C@H]2CC[C@]34O[C@]35CC[C@]3(C)C(C6(C)CC[C@@H](C(C)(C)O)O6)[C@@H](O)CC3(C)[C@@H]5CC(OC3OC(CO)C(O)C(O)C3O)C4C2(C)C)OCC(O)C1O` (stereo partly specified) showed a TGI of over 100 µM.

Consider `Cc1nc(Sc2nc3ccc([N+](=O)[O-])cc3s2)sc1C`, for which the GI50 is 5.87 µM and the TGI was 19.8 µM.

In turn, `O=[N+]([O-])C(C(Cl)=C(Cl)Cl)=C(n1cncn1)n1cncn1` gave a TGI of over 100 µM.

`O=C1C(Cl)=C(NCCF)C(=O)c2ncccc21` came in with a TGI of 2.89 µM.

Regarding `CC[C@@H](O)C[C@H]1CCC[C@@]2(C[C@@H]3OC(=O)/C=C/[C@@](C)(O)[C@@H](O)[C@H](C)[C@@H](O)[C@H](OC4CCC(N(C)C)C(C)O4)[C@@H](O)[C@](C)(O)CCCCC/C=C/[C@@H]4CC(C)(C)O[C@@]4(O)C[C@H](O2)[C@H]3C)O1` (stereo partly specified), the TGI is 23.6 µM.

The compound `C1=NCCOCCN=Cc2ccc(cc2)OCc2cccc(n2)COc2ccc1cc2` yielded a TGI of over 100 µM.

`O=C1NC(=Nc2ccccc2Cl)N/C1=C\c1ccc(Cl)cc1Cl` gave a TGI of over 100 µM.

`S=C(CSc1ccccc1)Nc1cccc2ccccc12` yielded a TGI of over 100 µM.

For `CC12OC(C(=O)C13CCC3)C1C(=O)c3ccc4c(ccc5ccccc54)c3C(=O)C12` (stereo unspecified), the GI50 is 16.5 µM and the TGI is 41.6 µM.

`C[C@H](NC(=O)c1c(C(F)F)nn(C)c1Oc1cccc(C(F)(F)F)c1)c1ccc(C(=O)O)cc1`: the GI50 was over 100 µM and the TGI is over 100 µM.

`OC(COc1ccccc1)CN1CCCCC1` (stereo unspecified) came in with a TGI of over 100 µM.

For `C#C[C@]1(O)CC[C@H]2[C@@H]3CCC4=C/C(=N/OC(=O)c5cccc6c(=O)c7ccccc7[nH]c56)CCC4[C@H]3CC[C@@]21CC` (stereo partly specified), the TGI was over 100 µM.

For the compound `Cc1noc(C)c1-c1cnc2c(-c3ccc(C(=O)O)cc3)cn([C@@H](C)c3ccccn3)c2c1`, the GI50 is 1.41 µM and the TGI was over 100 µM.

In the case of `COc1ccccc1C1C(C#N)=C(N)Oc2cc(O)ccc21` (stereo unspecified), the GI50 is 47.7 µM and the TGI is over 100 µM.

For `CCC(C)(O)c1cn(-c2ccc(S(=O)(=O)O)cc2)nn1` (stereo unspecified), the TGI was over 100 µM.

For `C=C(CO)CC(/C=C(\C)CC/C=C(\C)CCl)OC(C)=O` (stereo unspecified), the TGI was over 100 µM.

In turn, `COc1ccc(/C(Cl)=C(\C=O)c2ccc(Cl)cc2)cc1OC` came in with a TGI of over 100 µM.

Compound `CCOC(=O)/C=C(/C(=O)OCC)n1ccc(=O)n(Cc2cnnn2CCCCOC(C)=O)c1=O` showed a TGI of over 100 µM.

Take `CN(C)c1ccc(/C=C(\NC(=O)c2ccccc2)C(=O)NC(Cc2c[nH]c3ccccc23)C(=O)O)cc1` (stereo unspecified): the TGI is over 100 µM.

On to `Cn1cc(C2=C(c3ccccc3C(F)(F)F)C(=O)NC2=O)c2ccccc21`, for which the GI50 is 10.8 µM and the TGI is over 25 µM.

`Cc1ccc(S(=O)(=O)NC(=O)NC(CCC(N)=O)C(=O)O)cc1` (stereo unspecified) displayed a TGI of over 100 µM.

Consider `O=c1c2c3c(sc2nc2n1N=CN(c1ccc(F)cc1)C2)CCCC3`, for which the TGI is over 100 µM.

As to `C/C(=N\NC(N)=S)c1sc(-n2nc(-c3ccccc3)cc2-c2ccccc2)nc1C`, the TGI is over 100 µM.

The compound `Cc1cc(NS(=O)(=O)c2ccc(Nc3c4ccccc4nc4c(C(=O)NCCO)cccc34)cc2)no1` showed a TGI of 69 µM.

In the case of `Cc1ccc(/S(Cc2ccccc2)=N\S(=O)(=O)c2ccc(C)cc2)cc1` (stereo unspecified), the TGI is over 100 µM.

Consider `CC(=O)NC1C(OCc2ccccc2)OC(CO)C(O)C1OCC(=O)N[C@@H](C)C(=O)N[C@H](CCC(=O)NCCNc1ccc([N+](=O)[O-])c2[nH]c3ccccc3c(=O)c12)C(N)=O` (stereo partly specified), for which the TGI was over 100 µM.

Regarding `COc1cc(NC(C)CCCNC(C)C)c2ncccc2c1OC` (stereo unspecified), the GI50 was 37.3 µM and the TGI was over 100 µM.

`Oc1c(O)c(Cl)c(Cl)c(Cl)c1Cl`: the GI50 was 3.52 µM and the TGI turned out to be 24.8 µM.

Take `C/C(CC(=O)Nc1ccc(NC(=O)C/C(C)=N\NC(N)=O)cc1)=N/NC(N)=O`: the TGI was over 100 µM.

For the compound `COc1cccc2cc(C(=O)NC34CC5CC(CC(C5)C3)C4)c(=N)oc12`, the TGI is over 100 µM.

As for `O=C1Nc2ccccc2/C1=C/c1cn(CC(O)Cn2cc(/C=C3\C(=O)Nc4ccccc43)c3ccccc32)c2ccccc12` (stereo unspecified), the GI50 is 1.83 µM and the TGI was found to be 5.61 µM.

The compound `CN(C)CCCCCNc1c2ccccc2nc2cccc([N+](=O)[O-])c12` displayed a TGI of 0.0142 µM.

With `CCOC(=O)C#Cc1c(C(=O)OCC)nnn1[C@@H]1O[C@H](CO)[C@H]2OC3(CCCCC3)O[C@H]21`, the GI50 is 16.4 µM and the TGI is 30.7 µM.

For `Cc1cc(N(CCC#N)CCC#N)ccc1/C(N=Nc1ccc([N+](=O)[O-])cc1)=N\NC(=O)c1ccccc1`, the TGI was over 100 µM.

In turn, `CCNC(=S)NNC(=O)CSc1nc2ccc(I)cc2c(=O)n1Cc1ccccc1` gave a TGI of over 100 µM.

Consider `O=C(O)c1ccc(Nc2nc3nn(Cc4ccccc4)cc3c(=O)s2)cc1`, for which the TGI was over 100 µM.

`C=CC[C@]1(C2=NC(C)(C)CO2)c2ccccc2-c2ccccc2[C@H]1C(C)=O` came in with a TGI of 41.9 µM.

`O=C(NCc1ccc2ccc3cccnc3c2n1)c1ccc[n+](Cc2ccccc2)c1` showed a TGI of over 100 µM.

Take `COc1cc(Nc2ncnc(Nc3ccc4c(n3)NC(=O)C(C)(C)O4)n2)cc(OC)c1OC`: the GI50 is 2.42 µM and the TGI is over 100 µM.

The compound `CC1(C)OC2OC(COC(=O)c3ccc(C#N)cc3)C3OC(C)(C)OC3C2O1` (stereo unspecified) displayed a TGI of over 75 µM.

In turn, `O/N=C\C(=Nc1ccc(Cc2ccc(N=C(/C=N\O)NO)cc2)cc1)NO` showed a TGI of over 100 µM.

As to `CCOC(=O)C1(C(=O)OCC)C=C(c2ccccc2)N(C2OC(COC(C)=O)C(OC(C)=O)C(OC(C)=O)C2OC(C)=O)C1=S` (stereo unspecified), the TGI was over 100 µM.

As to `Cc1cn2c(/C=N/N=C(N)N)c(-c3ccncc3)nc2s1`, the GI50 was 20.5 µM and the TGI is 35.7 µM.

For the compound `COc1ccc2c(c1)O/C(=C\c1cccc(OCC(=O)Nc3nc(C)c(C)s3)c1)C2=O`, the GI50 was over 100 µM and the TGI was over 100 µM.

With `Nc1ccc(-c2ccc3ncc4ccc(=O)n(-c5cccc(C(F)(F)F)c5)c4c3c2)cn1`, the GI50 was under 0.01 µM and the TGI was 4.75 µM.

`O=C([CH-]C(=O)c1ccccc1)c1ccccc1.O=C([CH-]C(=O)c1ccccc1)c1ccccc1.O=C([CH-]C(=O)c1ccccc1)c1ccccc1.[Cl-].[Zr+4]`: the GI50 was 33.5 µM and the TGI was over 100 µM.

`C=CCN(CCN(CC=C)S(=O)(=O)c1ccc(C)cc1)S(=O)(=O)c1ccc(C)cc1` came in with a TGI of over 100 µM.

`COc1cc2c(c(OC)c1OC)-c1ccc(SC)c(=O)cc1C(CC(=O)Oc1cccc(F)c1)C2` (stereo unspecified): the TGI is over 55.2 µM.

For `Cc1ccccc1N=Nc1c(-c2ccccc2)nn(C(=O)CC(=O)Nc2cccc(Cl)c2)c1-c1ccccc1`, the TGI was over 31.6 µM.

The compound `COc1ccc(C2C3=C(COC3=O)OC(C)(C)Oc3cc4c(cc32)OCO4)cc1OC` (stereo unspecified) showed a TGI of over 100 µM.

`O=C(N/C(=C/c1cccc([N+](=O)[O-])c1)c1nc2ccc(Cl)cc2[nH]1)c1ccccc1` came in with a TGI of over 100 µM.

As to `COc1ccc(-c2nc(N)c(C#N)c3c2CCOc2c-3ccc3ccccc23)cc1`, the GI50 was 29.9 µM and the TGI is over 100 µM.

In the case of `CC(CC[C@@]1(O)OC2C[C@H]3[C@@H]4CC[C@H]5CC(OC6OC(CO)C(OC7OC(CO)C(O)C(OC8OCC(O)C(O)C8O)C7OC7OC(CO)C(O)C(O)C7O)C(O)C6O)[C@H](O)CC5(C)[C@H]4CCC3(C)C2[C@@H]1C)COC1OC(CO)C(O)C(O)C1O` (stereo partly specified), the TGI was determined as 34 µM.

Take `C1CC2=C(C1)C1=S(S2)SC2=C1CCC2`: the TGI is over 100 µM.

For the compound `C/C(O)=C(\N=O)C(=O)NCc1ccccc1`, the TGI was over 100 µM.

In turn, `COC(=O)[C@H](Cc1c[nH]c2ccccc12)NC(=O)c1ccccc1I` had a TGI of 52.3 µM.

For `C/C(O)=C(\C=NC(=S)c1ccncc1)C(=O)Nc1ccccc1C`, the TGI was over 100 µM.

For `COc1cccc(NC(=O)c2sc3nc4c(cc3c2N)C(O)CCC4)c1` (stereo unspecified), the GI50 is 0.797 µM and the TGI was over 100 µM.

For `COc1ccc(-c2nsc3c2NC(=O)CC3c2cccc(Cl)c2)cc1` (stereo unspecified), the GI50 was 6.29 µM and the TGI was over 100 µM.

Compound `CC(=O)NC1(C)C(C)C2CC1C(C)C2(C)C` (stereo unspecified) had a TGI of over 100 µM.

`C[n+]1ccccc1/C1=c2\cc/c([nH]2)=C(\c2cccc[n+]2C)C2=N/C(=C(/c3cccc[n+]3C)C3C=CC(N3)/C(c3cccc[n+]3C)=C3/C=CC1=N3)C=C2` gave a TGI of over 100 µM.

`COCOc1cc(OC)ccc1C/C(=N/O)C(=O)OC` yielded a TGI of over 100 µM.

Compound `O=C1NC(=Nc2ccccc2)C(=Nc2ccccc2)N1c1ccccc1` had a TGI of 35.4 µM.

Take `C=C(C)C(=O)OC1C[C@H](COC(C)=O)C2CC=C(CO)C2C2OC(=O)C(=C)[C@H]12` (stereo partly specified): the TGI was over 100 µM.

In turn, `CCn1c(=N)sc2nc3ccccc3n2c1=O` yielded a TGI of over 100 µM.

`COC(=O)CNC(=O)CCC(C)[C@H]1CCC2C3C(C[C@H](OC(C)=O)[C@@]21C)[C@@]1(C)CCC2(C[C@H]1C[C@H]3OC(C)=O)OOC1(CCCCC1)OO2` (stereo partly specified) gave a TGI of 54.2 µM.

As to `CC/C(Cc1ccccc1)=C(/c1ccc(O)cc1)c1ccc(OCCN2CCCC2)cc1`, the GI50 is 1.6 µM and the TGI amounted to 3.16 µM.

`CCOc1cc(-c2nc3cc(F)ccc3s2)ccc1O` had a TGI of 29.8 µM.

For `Cn1cncc1-c1c(F)cncc1NC(=O)c1c(N)nn2cc(F)cnc12`, the GI50 is 0.277 µM and the TGI worked out at 52 µM.

As to `NC(CSC(c1ccccc1)(c1ccccc1)c1ccc(F)cc1)C(=O)O` (stereo unspecified), the GI50 was 0.498 µM and the TGI is over 100 µM.

`CC(C)C(=S)N(C)O`: the TGI was over 100 µM.

Take `NCCOc1ncccc1/C=C1\c2ccccc2-c2ccc([N+](=O)[O-])cc21`: the GI50 is 0.283 µM and the TGI worked out at 1.12 µM.

Turning to `Cc1cccc(Nc2cc(Cl)nc(SCC(=O)O)n2)c1C`, the TGI was over 100 µM.

Take `CN1NC(c2ccccc2)=C(C#N)C(=O)CC1c1ccc(Br)cc1` (stereo unspecified): the TGI is over 100 µM.

In turn, `CC(C)=C1CCC(CN2CCOCC2)C1=O` (stereo unspecified) returned a TGI of 51.9 µM.

In turn, `CCn1c(CSc2nc(-c3ccccc3)c(-c3ccccc3)[nH]2)n[nH]c1=S` gave a TGI of over 100 µM.

The values are drawn from PubChem BioAssay (NCI).
